# Test results from PMC11995724, “Antibiotic target discovery by integrated phenotypic and activity-based profiling of electrophilic fragments” (Cell chemical biology, 2025).
# In all, about 3,200 compounds went through this assay and about 75 (2%) showed an effect of 50% or more. This is one part of the list.
# Tested on: T1, S. aureus MSSA476
# T1 construct: MSSA476
# Design: species or system S. aureus MSSA476 (TSB) or V. cholerae SAD30 (LB); 384-well bacterial growth screen at 25 uM, OD600 relative to DMSO control
# Settings: relative growth, OD600, TSB; 25 µM; inhibitor
row,Structure (SMILES),% of control remaining [%]
1,"C=CC(=O)N1CCN(C(=O)c2cc(C)no2)CC1 [1-N19, 1-[4-(3-methyl-1,2-oxazole-5-carbonyl)piperazin-1-yl]prop-2-en-1-one]",125.538
2,"C=CC(=O)N1CCC(C(=O)NC(C)(C)c2ccc(F)c(F)c2)CC1 [1-L04, N-[2-(3,4-difluorophenyl)propan-2-yl]-1-(prop-2-enoyl)piperidine-4-carboxamide]",119.912
3,"CS(=O)(=O)c1ccc(CNC(=O)CCl)cc1 [6-O12, 2-chloro-N-[(4-methanesulfonylphenyl)methyl]acetamide]",89.8049
4,"O=C(CCl)NCc1coc(Cl)n1 [6-B04, 2-chloro-N-[(2-chloro-1,3-oxazol-4-yl)methyl]acetamide]",94.5854
5,"CC(Cl)C(=O)N(C)CCOc1ccc(Cl)cc1 (stereo not shown) [6-C12, 2-chloro-N-[2-(4-chlorophenoxy)ethyl]-N-methylpropanamide]",89.122
6,"O=C(CCl)Nc1cccc(Oc2ccccc2)c1 [4-P19, 2-chloro-N-(3-phenoxyphenyl)acetamide]",90.7099
7,"C=CC(=O)NCc1cnoc1C [3-C22, N-[(5-methyl-1,2-oxazol-4-yl)methyl]prop-2-enamide]",129.212
8,"CC1CN(C(=O)C(C#N)=Cc2ccc(OC(F)F)cc2)CC(C)O1 (stereo not shown) [8-G05, 3-[4-(difluoromethoxy)phenyl]-2-(2,6-dimethylmorpholine-4-carbonyl)prop-2-enenitrile]",108.216
9,"O=C(CCl)N(CC=Cc1ccccc1)c1ccc2c(c1)OCCO2 [4-G19, 2-chloro-N-(2,3-dihydro-1,4-benzodioxin-6-yl)-N-(3-phenylprop-2-en-1-yl)acetamide]",103.287
10,"C=CC(=O)NCC1CCc2cccnc21 (stereo not shown) [3-M07, N-({5H,6H,7H-cyclopenta[b]pyridin-7-yl}methyl)prop-2-enamide]",96.1254
11,"Cc1nc(C#N)c(N2CCN(C(=O)CCl)CC2)o1 [5-L18, 5-[4-(2-chloroacetyl)piperazin-1-yl]-2-methyl-1,3-oxazole-4-carbonitrile]",84.8816
12,"N#CC(=Cc1ccc2ccccc2c1)C(=O)NCc1ccccc1 [9-N11, N-benzyl-2-cyano-3-(naphthalen-2-yl)prop-2-enamide]",104.27
13,"C=CC(=O)N1CCC(C(=O)N2CCOc3cc(F)ccc3C2)CC1 [3-E06, 1-[4-(8-fluoro-2,3,4,5-tetrahydro-1,4-benzoxazepine-4-carbonyl)piperidin-1-yl]prop-2-en-1-one]",97.1702
14,"O=C(CCl)NCC1(c2ccc(F)cc2)CCCC1 [6-E18, 2-chloro-N-{[1-(4-fluorophenyl)cyclopentyl]methyl}acetamide]",85.7073
15,"CC1CN(C(=O)c2ccc(NC(=O)C(C)Cl)cc2)CC(C)O1 (stereo not shown) [7-E22, 2-chloro-N-[4-(2,6-dimethylmorpholine-4-carbonyl)phenyl]propanamide]",77.237
16,"O=C(CCl)N(Cc1ccccc1)Cc1ccc(F)cc1 [5-I06, N-benzyl-2-chloro-N-[(4-fluorophenyl)methyl]acetamide]",104.554
17,"CC(c1cccc(NC(=O)c2ccccc2)c1)N(C)C(=O)CCl (stereo not shown) [6-M22, N-{3-[1-(2-chloro-N-methylacetamido)ethyl]phenyl}benzamide]",92.5366
18,"CC(Cl)C(=O)NCCS(=O)(=O)c1cccs1 (stereo not shown) [6-N15, 2-chloro-N-[2-(thiophene-2-sulfonyl)ethyl]propanamide]",91.5122
19,"C=CC(=O)NCc1nnc(C(F)(F)F)s1 [1-O14, N-{[5-(trifluoromethyl)-1,3,4-thiadiazol-2-yl]methyl}prop-2-enamide]",112.879
20,"COc1ccc(C(=O)C(C)Cl)c(OC)c1 (stereo not shown) [10-J17, 2-chloro-1-(2,4-dimethoxyphenyl)propan-1-one]",124.688
21,"C=CC(=O)NCC1(C)CCC(C)(C)CC1 [1-F22, N-[(1,4,4-trimethylcyclohexyl)methyl]prop-2-enamide]",112.527
22,"COc1ccc(C=C(C#N)C(=O)Nc2ccc3c(c2)OCCO3)cc1O [8-H19, 2-cyano-N-(2,3-dihydro-1,4-benzodioxin-6-yl)-3-(3-hydroxy-4-methoxyphenyl)prop-2-enamide]",102.905
23,"O=C(CCl)Nc1c(Cl)cc(Cl)cc1Cl [5-B16, 2-chloro-N-(2,4,6-trichlorophenyl)acetamide]",90.7104

row,Structure (SMILES),% of control remaining [%]
1,"C=CC(=O)NC1CCc2nc(CC)nn2C1 (stereo not shown) [1-G22, N-{2-ethyl-5H,6H,7H,8H-[1,2,4]triazolo[1,5-a]pyridin-6-yl}prop-2-enamide]",95.6484
2,"C=CC(=O)NCc1nc2ccccc2n1C1CC1 [2-N03, N-[(1-cyclopropyl-1H-1,3-benzodiazol-2-yl)methyl]prop-2-enamide]",88.7728
3,"C=CC(=O)N(Cc1c(F)cc(C)cc1Cl)C1CCCOCC1 (stereo not shown) [2-A13, N-[(2-chloro-6-fluoro-4-methylphenyl)methyl]-N-(oxepan-4-yl)prop-2-enamide]",130.2
4,"CC(Cl)C(=O)N1CCC(Oc2cnc3ccccc3n2)CC1 (stereo not shown) [7-I18, 2-chloro-1-[4-(quinoxalin-2-yloxy)piperidin-1-yl]propan-1-one]",105.181
5,"N#CC(=Cc1ccsc1)C(=O)Nc1ccc(Cl)cc1 [9-I06, N-(4-chlorophenyl)-2-cyano-3-(thiophen-3-yl)prop-2-enamide]",81.1985
6,"O=C(CCl)c1ccc(NC(=O)c2ccccc2)cc1 [10-B06, N-[4-(2-chloroacetyl)phenyl]benzamide]",0
7,"O=C1C=CC(=O)N1c1cccc([N+](=O)[O-])c1 [10-P15, 1-(3-nitrophenyl)-2,5-dihydro-1H-pyrrole-2,5-dione]",114.063
8,"C=CC(=O)NC[C@@H]1C[C@H](F)CN1Cc1csc(C)n1 [2-I09, N-{[(2S,4S)-4-fluoro-1-[(2-methyl-1,3-thiazol-4-yl)methyl]pyrrolidin-2-yl]methyl}prop-2-enamide]",106.527
9,"C=CC(=O)N1CCC(C(=O)N2CCOC(c3cccc(F)c3)C2)CC1 (stereo not shown) [2-L14, 1-{4-[2-(3-fluorophenyl)morpholine-4-carbonyl]piperidin-1-yl}prop-2-en-1-one]",95.7354
10,"C=CC(=O)Nc1ccc(S(C)(=O)=O)cc1OCC [2-C08, N-(2-ethoxy-4-methanesulfonylphenyl)prop-2-enamide]",116.275
11,"CC(Cl)C(=O)N(C)CCn1c(=O)oc2ccccc21 (stereo not shown) [7-H15, 2-chloro-N-methyl-N-[2-(2-oxo-2,3-dihydro-1,3-benzoxazol-3-yl)ethyl]propanamide]",92.6217
12,"C=CC(=O)N(Cc1cc(-c2ccco2)n(C)n1)C1CCCCC1 [1-J15, N-cyclohexyl-N-{[5-(furan-2-yl)-1-methyl-1H-pyrazol-3-yl]methyl}prop-2-enamide]",104.44
13,"C[C@@H](NC(=O)CCl)c1cnnn1C [7-F16, 2-chloro-N-[(1R)-1-(1-methyl-1H-1,2,3-triazol-5-yl)ethyl]acetamide]",96.7033
14,"Cn1cc(C=C(C#N)C(=O)NCc2ccccc2)cn1 [8-J10, N-benzyl-2-cyano-3-(1-methyl-1H-pyrazol-4-yl)prop-2-enamide]",86.971
15,"COc1ccc(C(NC(=O)CCl)c2ccccc2)cc1 (stereo not shown) [4-J11, 2-chloro-N-[(4-methoxyphenyl)(phenyl)methyl]acetamide]",91.091
16,"C=CC(=O)NCc1oc(CC)nc1C [3-P15, N-[(2-ethyl-4-methyl-1,3-oxazol-5-yl)methyl]prop-2-enamide]",86.7218
17,"CC(Cl)C(=O)Nc1ccc(Cl)cc1C(F)(F)F (stereo not shown) [4-A14, 2-chloro-N-[4-chloro-2-(trifluoromethyl)phenyl]propanamide]",134.921
18,"C=CC(=O)NCc1ccnc(OC2CCOCC2)c1 [2-B17, N-{[2-(oxan-4-yloxy)pyridin-4-yl]methyl}prop-2-enamide]",135.77
19,"CC(Cl)C(=O)Nc1ccc(SC(F)F)cc1 (stereo not shown) [4-L09, 2-chloro-N-{4-[(difluoromethyl)sulfanyl]phenyl}propanamide]",91.091
20,"N#CC(=Cc1ccc(F)c([N+](=O)[O-])c1)C(=O)Nc1ccc(F)cc1 [8-D04, 2-cyano-3-(4-fluoro-3-nitrophenyl)-N-(4-fluorophenyl)prop-2-enamide]",123.154
21,"COc1ccc(OC)c(C(C)NC(=O)CCl)c1 (stereo not shown) [4-M19, 2-chloro-N-[1-(2,5-dimethoxyphenyl)ethyl]acetamide]",119.676
22,"N#CC(=Cc1c(F)cccc1Cl)C(=O)Nc1ccc(C(=O)O)cc1 [9-P06, 4-[3-(2-chloro-6-fluorophenyl)-2-cyanoprop-2-enamido]benzoic acid]",109.663
23,"C=CC(=O)Nc1ccc2c(=O)onc(C)c2c1 [1-N12, N-(4-methyl-1-oxo-1H-2,3-benzoxazin-6-yl)prop-2-enamide]",94.9451
